# Source: PubChem BioAssay AID463173 (ICCB-Longwood Screening Facility, Harvard Medical School, 2010)
# About 4,300 (8.3%) of roughly 52,000 compounds were called active. Rule as the data show it: active = survival mostly below about 52% (no sharp cut-off); inactive = mostly above about 56%. Some of the results follow.
# System: DeltatarO mutant
# Experiment: S. aureus survival, RN4220 and DeltatarO strains – OD600, teichoic acid synthesis inhibitors, primary screen (AID 463173)
# Details: S. aureus RN4220 wild type/DeltatarO growth, OD600, 18 h, stronger effect = lower value, screened at 18.75 µg/mL (by protocol)
row,Structure (SMILES),survival
1,COc1ccc(-n2c(SCC(=O)NCc3ccc(C)cc3)nc3n[nH]c(C)c3c2=N)cc1,inactive: 87%
2,COc1ccc(OC)c(N=c2oc3cc(O)ccc3cc2C(=O)Nc2ccccn2)c1,inactive: 70%
3,Fc1ccc(-c2nc(Nc3cccc(C(F)(F)F)c3)nc3c2COc2ccccc2-3)cc1,inactive: 54%
4,COC(=O)c1sccc1S(=O)(=O)N(CC(=O)NCc1ccc(C)cc1)c1ccc(C)cc1,inactive: 72%
5,O=C(NCCc1ccncc1)Nc1c[nH]c2ccccc2c1=O,inactive: 89%
6,Cc1cccc(Cc2c(C)nc3c(-c4ccccc4)c(C)[nH]n3c2=O)c1,active: 16%
7,CCC(=O)N(Cc1cccnc1)Cc1cc2cc(OC)ccc2[nH]c1=O,inactive: 89%
8,CC1CCCN(S(=O)(=O)c2ccc3c(c2)CCN3C(=O)CCC(=O)O)C1 (stereo unspecified),inactive: 96%
9,Cc1cc(C(=O)Nc2ccc(-n3c(C)nc4ccccc4c3=O)cc2)ccc1[N+](=O)[O-],inactive: 131%
10,CCN1CCN(C(=O)c2cccs2)CC1,inactive: 99%
11,COc1ccc(NC(=O)CCCn2nc(C)c3sc4ccccc4c3c2=O)cc1,inactive: 81%
12,COc1ccc(S(=O)(=O)NCCSc2nnnn2-c2ccccc2)cc1,inactive: 66%
13,O=C1Nc2ccccc2C(=O)N2CCCC12 (stereo unspecified),inactive: 80%
14,CCN(Cc1ccccc1)S(=O)(=O)c1ccc(-c2coc(C)n2)cc1,inactive: 99%
15,CC(CNC(=O)c1ccc2nc(Cc3ccccc3)oc2c1)c1ccccc1 (stereo unspecified),inactive: 70%
16,Cc1cc(-n2c(C)nc3ccccc3c2=O)ccc1NC(=O)C(F)(F)F,inactive: 69%
17,O=C(Cn1ncc2c3ccccc3n(Cc3ccc(F)cc3)c2c1=O)NCc1cccs1,inactive: 92%
18,COc1cccc(C2CC(=O)Nc3c2c(=O)[nH]c2nc4ccccc4n32)c1 (stereo unspecified),inactive: 183%
19,COc1ccc(C(=O)NCC(c2ccc3c(c2)OCO3)N2CCN(c3ccccc3F)CC2)cc1 (stereo unspecified),inactive: 84%
20,O=C(COc1ccc([N+](=O)[O-])cc1)Nc1nc2c(s1)CCCC2,inactive: 90%
21,O=C(NCC(c1ccc(Cl)cc1)N1CCOCC1)c1ccccc1F (stereo unspecified),inactive: 88%
22,CCOc1ccc(-c2nnc(SCC(=O)Nc3cccc(OC)c3)nc2-c2ccc(OCC)cc2)cc1,active: 0%
23,CCc1ccc(NC(=O)Cn2c(=O)n(CCCCC(=O)NCCc3ccc(Cl)cc3)c(=O)c3ccccc32)cc1,inactive: 110%

row,Structure (SMILES),survival
1,O=c1[nH]c2ccc(NCc3ccc(-c4ccc(Br)cc4)o3)cc2[nH]1,inactive: 57%
2,CCOC(=O)c1c(NC(=O)c2nc(S(C)(=O)=O)ncc2Cl)sc(C(C)=O)c1C,active: 6%
3,Cc1ccc2ncc(C(=O)Nc3ccc(OC(F)(F)F)cc3)c(=O)n2c1,inactive: 88%
4,COc1cc(OC)cc(-c2nc(-c3ccc4c(c3)[nH]c(=O)n4C)no2)c1,inactive: 94%
5,O=C1CCCc2cc(S(=O)(=O)N3CCCC(C(=O)NCc4ccc(Cl)cc4)C3)ccc2N1 (stereo unspecified),inactive: 86%
6,Cc1ccccc1-c1nnn(CC(=O)Nc2sc3c(c2C#N)CCC(C(C)(C)C)C3)n1 (stereo unspecified),inactive: 71%
7,CCOc1ccc(-c2nc3c(c(SCC(=O)N4CCCCC4)n2)Cc2cccc(OC)c2O3)cc1,inactive: 68%
8,CCCCN1C(=O)C(O)(CC(=O)c2ccc(C(C)(C)C)cc2)c2ccccc21 (stereo unspecified),inactive: 28%
9,O=C(Nc1ccccc1C(F)(F)F)n1ncc2cc(Cl)ccc21,inactive: 104%
10,COc1ccc2cc3c(N)nn(C(=O)c4ccc(OC)c(OC)c4)c3nc2c1,inactive: 86%
11,Cc1ccc2c(c1)nnn2C1CCN(C(=O)Nc2ccc(C#N)cc2)CC1,inactive: 91%
12,O=C(Nc1nncs1)C1c2ccccc2Oc2ccccc21,inactive: 108%
13,CCOC(=O)c1[nH]c2ccccc2c1NC(=O)c1ccc(Br)cc1,inactive: 95%
14,Cc1ccc2c(c1)N(CCCC(=O)Nc1cccc(C(F)(F)F)c1)C(=O)CO2,inactive: 74%
15,COc1cccc(CNC(=O)C2CCN(S(=O)(=O)c3ccc4c(c3)CCCN4C(C)=O)CC2)c1,inactive: 113%
16,O=C(Cn1c(=O)nc(-c2ccccc2)c2cc(Cl)ccc21)Nc1ccc(F)c(Cl)c1,inactive: 75%
17,CCOc1cc(C#N)c(NC(=O)Cn2nnc(-c3ccc(C)cc3)n2)cc1OCC,active: 42%
18,COc1cccc(CNC(=O)c2ccc(-n3c(C)cc4c3CCC(C)C4)cc2)c1 (stereo unspecified),inactive: 55%
19,CN(C(=O)c1cccc(C#N)c1)c1nnc(C2CCOC2)s1 (stereo unspecified),inactive: 100%
20,Cc1cccc(CSc2ncc(Cl)c(C(=O)Nc3nc4ccc(F)cc4s3)n2)c1,active: 33%
21,CCOc1ccc(NC(=O)c2ncoc2-c2ccco2)cc1,inactive: 89%
22,COc1cc(NC(=O)Cn2cc(C(=O)c3ccc(F)cc3)c(=O)c3ccc(C)nc32)cc(OC)c1,inactive: 74%
23,Cc1ccc2nc3c(cc(C#N)c(=O)n3-c3nnc(SCc4ccccc4)s3)c(=O)n2c1,inactive: 75%

row,Structure (SMILES),survival
1,CC1=C(c2ccc(Cl)cc2)S(=O)(=O)N=C1N1CCN(c2cccc(C)c2C)CC1,inactive: 83%
2,Cc1cccc(NC(=O)CSc2nc3ccc(NC(=O)c4ccccc4)cc3s2)c1,inactive: 75%
3,COc1cccc(CN2C(=O)c3ccccc3Sc3ccc(C(=O)OCc4ccco4)cc32)c1,inactive: 87%
4,CC(=O)Nc1ccc(I)cc1C(=O)O,inactive: 95%
5,Cc1ccc(CNc2nnc(C)c3nnn(Cc4ccc(F)cc4)c23)cc1,inactive: 75%
6,COc1cc(NC(=O)Cn2c(=O)cc(C)c3c(C)nn(-c4ccc(C)cc4)c32)cc(OC)c1,inactive: 97%
7,CC(=O)N1c2ccc(S(=O)(=O)N3CCCCCC3)cc2CC1C(=O)NCc1cccc(C)c1 (stereo unspecified),inactive: 88%
8,CCOc1ccc(-c2cc3nc(C4CCN(C(=O)OC(C)(C)C)CC4)c(C(=O)Nc4cccc(CC)c4)cn3n2)cc1,inactive: 64%
9,Fc1ccc(NCc2ccccc2-c2nnc(-c3ccccc3Cl)o2)cc1,inactive: 88%
10,O=C(NCCc1csc(-c2cccnc2)n1)c1cccc(Cl)c1,inactive: 54%
11,CCOc1ccc(CC(=O)NCCc2sc3nc(-c4ccc(F)cc4)nn3c2C)cc1,inactive: 79%
12,Cc1ccc2ncc(C(=O)c3ccc(C)c(C)c3)c(S(=O)(=O)c3ccc(F)cc3)c2c1,inactive: 81%
13,Cc1ccccc1Cn1c(SCc2ccc(C(=O)NC3CCCCC3)cc2)nc2ccncc21,inactive: 83%
14,COc1ccc(C)cc1C(=O)CCC(=O)O,inactive: 103%
15,Cc1nc(SCc2cccc(Cl)c2)nc2c1CCCC2,active: -2%
16,CC(C)N(Cc1nc(-c2ccc(Cl)cc2)no1)C(=O)c1ccc(C(C)(C)C)cc1,active: -1%
17,Cc1cc(SCC(N)=O)nc2ccccc12,inactive: 96%
18,CCc1ccc(NC(=O)CSc2nccn2-c2ccc(F)cc2)cc1,inactive: 107%
19,COc1ccc(N2CC(NC(=O)/C=C\c3ccc4c(c3)OCO4)CC2=O)cc1OC (stereo unspecified),inactive: 85%
20,CCSc1nc2n(n1)C(c1ccc(Cl)cc1Cl)C(C(=O)Nc1ccccc1C)=C(C)N2 (stereo unspecified),inactive: 67%
21,CC(C)(C)c1ccc(-c2nc(NC(=O)CSc3ncnc4sc5c(c34)CCCC5)ns2)cc1,active: 57%
22,Cc1ccc(-n2ccn(CC(=O)NCCc3ccccc3)c(=O)c2=O)cc1C,inactive: 56%
23,CCCCOc1ccc(C(=O)N(Cc2ccc(N(C)C)cc2)Cc2ccco2)cc1,inactive: 66%

row,Structure (SMILES),survival
1,Cc1ccc(-n2ncc3c(NCc4ccccc4)ncnc32)cc1Cl,active: -4%
2,CCC(=O)C1=C(c2ccc(F)cc2)N(C(=O)CC)n2cnnc2S1,inactive: 128%
3,Cc1ccccc1CN1C(=O)c2ccccc2S(=O)c2ccc(C(=O)NCc3ccc(Cl)cc3)cc21 (stereo unspecified),inactive: 83%
4,CCc1ccccc1NC(=O)CN(c1ccccc1)S(=O)(=O)c1ccsc1C(=O)OC,inactive: 119%
5,O=C(NCc1ccc2c(c1)OCO2)c1ccc2c(c1)N(Cc1ccccc1F)C(=O)c1ccccc1S2,inactive: 88%
6,Cc1ccc2cccc(NC(=O)c3ccc(OC(C)C)cc3)c2n1,inactive: 95%
7,CCc1ccccc1NC(=O)Cn1cc(S(=O)(=O)N2CCCC2)c(S(=O)(=O)N2CCCC2)c1,inactive: 71%
8,O=C(c1ccco1)N(Cc1cccnc1)c1nc2c(F)cc(F)cc2s1,inactive: 94%
9,COc1ccccc1NC(=O)CSc1nncn2c1cc1sccc12,inactive: 92%
10,O=C(NCCNCc1ccco1)c1ccccc1,inactive: 112%
11,C=CCn1c(=N)c(C(N)=O)cc2c(=O)n3ccccc3nc21,inactive: 114%
12,CCOc1ccc(-c2nn(-c3ccccc3)cc2C2NC(=O)NC(C)=C2C(=O)OC(C)C)cc1 (stereo unspecified),inactive: 64%
13,CSc1nc(Nc2ccc(F)cc2)cc(-c2ccccc2)n1,active: -5%
14,CC(C)(C)OC(=O)N1CCC(c2c(C(=O)NCCN3CCc4ccccc4C3)cnn2-c2ccc(F)cc2)CC1,inactive: 68%
15,CCCCOc1ccc(C(=O)Nc2ccc(-c3cc4ccccc4oc3=O)cc2)cc1,inactive: 81%
16,CC(C)c1ccc(OCC(=O)NCCS(=O)(=O)N2CCN(c3ccc(F)cc3)CC2)cc1,inactive: 94%
17,CN(CCC(N)=O)Cc1ccccc1,inactive: 75%
18,CS(=O)(=O)N1CCSC1c1ccc(Cl)cc1Cl (stereo unspecified),inactive: 109%
19,COc1ccccc1C(=O)N1c2ncnn2C2(CCCCC2)[C@@H]2CCCC[C@@H]21,inactive: 74%
20,COc1ccc(Cn2c(C(=O)O)c(CNC3CCCC3)c3ccc(OC)cc32)cc1,inactive: 73%
21,CCn1c(=O)cc(SCC(=O)NCc2cccc(Cl)c2)c2ccccc21,active: 38%
22,CCN1C(=O)c2ccccc2Sc2ccc(NC(=O)N3CCN(c4cc(C)ccc4C)CC3)cc21,inactive: 52%
